Data on 20 variants can be found in the RNAGym collection of RNA variant scans (doi:10.7554/elife.90254).

To fix the notation:
B1: LINE1-full (parent)
chain: UACGUAGGUGGUUUUCCCCUGAUAGUGCUAAGGGGGCCUGGAAGUUUGGACUGGGCAGAGCUCAACACAGCGUGGCAAAGUGGCUGUGGCUAGACUGCCUCUCUGGAUUCCUCGUCACUCAGCAGGGCAUCUCUGAGAGAAAUGCC

The source gives no read counts; variants with many changes may rest on few reads.

The variants in the data set derive from B1. Kind of data set: self-cleavage, relative activity (ratio to wild type); higher = more cleavage; in vitro, sequencing; the parent is a self-cleaving ribozyme.
Regarding CACGUAGGUGGUUUUCCCCUGAUAGUGCUAAGGGGGCCUGGAAGUUUGGACUGGGCAGGGCUCAACACAGCGCGGCAAAGUGGCUGUGGCUAGACUGCCUCUCUGGAUUCCUCGUCACUCAGCAGAGCAUCUCUGAGAGAAAUGCC, the self-cleavage was found to be 0.

In the case of CACGUAGGUGGUUUUCCCCUGAUAGUGCUAAGGGGGCCUGGAAGUUUGGCCUGGGCAGAGCUCAACACAGCGUGGCGAAGUGGCUGUGGCUAGACUGCCUCUCUAGAUUCCUCGUCACUCAGCGGGGCAUCUCUGAGAGAAAUGCC, the self-cleavage is 0.77.

CACGUAGGUGGUUUUCCCCUGAUAGUGCUAAGGGGGCCUGGAAGUUUGGACUGGGCAGAGCUCAUCACAGCGUGGCAAAGUGGCUGUGGCUAGACUGCCUCCCUGGAUUCCUCGUCACUCGGCAGGGCAUCUCUGGGAGAAAUGCC: the self-cleavage came to 0.

For CACGUAGGUGGUUUUCCCCUGAUAGUGCUAAGGGGGCCUGGAAGUUUGGACUGGGCAGAGCUCGACACAGCGUGGCAAAGUGGCUGUGGCUAGACUGCCCCUCUGGAUUCCUCGUCACUCAGCAGGGCAUCUCUGAGAGAAAUGCC, the self-cleavage was found to be 0.77.

In the case of CACGUAGGUGGUUUUCCCCUGAUAGUGCUAAGGGGGCCUGGAAGUUUGGACUGGGCAGAGCUCAGCACAGCGUGGCAAAGUGGCUGCGGCUAGACUGCCUCUCUGGAUUCCUCGUCACUCAGCAGGGCAUCUCUGAGAGAAAAGCC, the self-cleavage worked out at 0.

Take CACGUAGGUGGUUUUCCCCUGAUAGUGCUAAGGGGGCCUGGAAGUUUGGUCUGGGCAGAGCUCAACUCAGCGUGGCAAAGUGGCUGUGGCUAGACUGCCUCUCUGGAUUCCUCGUCACUCAGCAGGGCAUCUCUGGGAGAAAUGCC: the self-cleavage was 0.06.

As for CACGUAGGUGGUUUUCCCCUGAUAGUGCUAAGGGGGCCUGGAAGUUUGGGCUGGGCAGAGCUCAACACAGCGUGGCAAGGUGGCUGUGGCUAGACUGCCUCCCUGGAUUCCUCGUCACUCAGCAGGGCAUCUCUGAGAGAAAUGCC, the self-cleavage was found to be 2.12.

As to CACGUAGGUGGUUUUCCCCUGAUAGUGCUAAGGGGGCCUGGAAGUUUGGACUGGGCGGAGCUCAACACAGCGUGGCAAAGUGGCUGUGGCUAGACUGCCUCUCUGGAUUCCUCGUCUCUCAGCAGGGCAUCUCUGAGAGAAAUGCC, the self-cleavage came to 1.03.

Consider CACGUAGGUGGUUUUCCCCUGAUAGUGCUAAGGGGGCCUGGAAGUUUGGACUGGGCAGAGCUCAACACUGCGUGGCAAAGUGGCUGUGGCUAGACUGCCUCCCUGGAUUCCUCGUCACUCAGCAGGGCAUCUCUGAGAGAGAUGCC, for which the self-cleavage was 0.

Consider CACGUAGGUGGUUUUCCCCUGAUAGUGCUAAGGGGGCCUGGAAGUUUGGACUGGGCAGAGCUCGACACAGCGUGGCAAAGUGGCUGUGGCUAGACUGCCUCUCUGGAAUCCUCGCCACUCAGCAGGGCAACUCUGAGAGAGAUGCC, for which the self-cleavage was found to be 0.48.

For CACGUAGGUGGUUUUCCCCUGAUAGUGCUAAGGGGGCCUGGAAGUUUGGACUGGGCAGAGCUCCACACAGCGUGGCAAAGUGGCUGUGGCUAGACUGCCUCUCUGGAUUCCUCGUCGCUCAGCAGGGCAUCUCUGAGAGAAAUGCC, the self-cleavage stood at 0.15.

As for CACGUAGGUGGUUUUCCCCUGAUAGUGCUAAGGGGGCCUGGAAGUUUGGACUGGGCAGGGCUCAACACAGCGUGGCAAAGUGGCUGUGGCUAGACUGCCUCUCUGGAUCCCUCGUCACACAGCAGGGCAUCUCUGAGAGAAAUGCC, the self-cleavage is 0.15.

CACGUAGGUGGUUUUCCCCUGAUAGUGCUAAGGGGGCCUGGAAGUUUGGACUGGGCAGAGCUCGACGCAGCGUGGCAAAGUGGCUGUGGCUAGACUGCCUCUCUGGAUUCCUCGUCACUCAGCAGGGCAUCUCUGAGAGAAAUGCC: the self-cleavage was 0.21.

Regarding CACGUAGGUGGUUUUCCCCUGAUAGUGCUAAGGGGGCCUGGAAGUUUGGACUGGGCAGGGCUCAACACAGCGUGGCAAAGUGGCUGUGGCUAGACUGCCUCUCUGGAUCCCUAGUCACUCAGCAGGGCAUCUCUGAGAGAAAUGCC, the self-cleavage amounted to 0.16.

Regarding CACGUAGGUGGUUUUCCCCUGAUAGUGCUAAGGGGGCCUGGAAGUUUGGACUGGGCAGAGCUCGACACAGCGUGGCAAAGUGGCUGUGGCUAGACUGCCUCUCUGGAUUCCUCGUCACUCAGCAGGGCAUCUCUGAGAGGAAUGCC, the self-cleavage is 0.07.

Take CACGUAGGUGGUUUUCCCCUGAUAGUGCUAAGGGGGCCUGGAAGUUUGGACUGGGCAGAGCUCAGCACAGCGUGGCAAAGUGGCUGUGGCUAGACUGCCUCUCUGGAUUCCUCGUCACUCAGCAGGACAUCUCUGAGAGAAAUGCC: the self-cleavage was 0.04.

As to CACGUAGGUGGUUUUCCCCUGAUAGUGCUAAGGGGGCCUGGAAGUUUGGACUGGGCUGAGCUCAACACAGCGCGGCAAAGUGGCUGUGGCUAGACUGCCUCUCUGGAUUCCUCGUCACUCAGCAGGGCAUCUCUGAGAGAAAUGCC, the self-cleavage turned out to be 0.12.

Regarding CACGUAGGUGGUUUUCCCCUGAUAGUGCUAAGGGGGCCUGGAAGUUUGGACUGGGCAGAGCUCGACACAGCGUGGCAAAGCGGCUGUGGCUAGACUGCCUCUCUGGAUUCCUCGUCACUCAGCAGGGCAUCUCUGAGAGAAAUGCC, the self-cleavage worked out at 0.41.

As to CACGUAGGUGGUUUUCCCCUGAUAGUGCUAAGGGGGCCUGGAAGUUUGGACUGGGCUGAGCUCGACACAGCGUGGCAAAGUGGAUGUGGCUAGACUGCCUCUCUGGAUUCCUCGUCACUCAGCAGGGCAUCUCUGAGAGAAAUGCC, the self-cleavage turned out to be 0.15.

Take CACGUAGGUGGUUUUCCCCUGAUAGUGCUAAGGGGGCCUGGAAGUUUGGACUGGGCGGAGCUCAACACAGCGUGGCAAAGUGGCUGUGGCUAGACUGCCUCUCUGGAUUCCUCGUCACUCAGCAGGGCAUCUCUGAGAGAAGUGCC: the self-cleavage was determined as 0.51.
